This is one part of the list.
test system: PfSIP2 AP2 domain 1 (GST-tagged); experiment: gcPBM binding intensity (ln(normalized median fluorescence intensity)); higher = stronger DNA binding
Method in brief: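 Each value is the highest Masliner-normalised natural-log median intensity across replicate spots of either orientation of a probe. The probes were primer-extended double-stranded 36-bp intergenic genomic sequences on an Agilent 4 × 180k array, alongside negative controls, exposed for 1 h to GST-tagged P. falciparum DNA-binding domains expressed in E. coli. Bound protein was picked up with Alexa488 anti-GST antibody and scanned at 488 nm.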

| Sequence | gcPBM binding intensity (ln) |
| --- | --- |
| AACACGCGCGGACACACACACACACCCACATATATA [CACACA_site5252] | 7.16 |
| ATTTATATCTCCATATGTTCAAAACTTTCACAAATA [TGCATGCA_negctrl_site108] | 7.18 |
| AATATAAATTAATTTACACACTAAAAAATATATATA [CACACA_site3778] | 7 |
| AAAATAAGTAATTACTAATATATAAATTAATAATTA [CACACA_negctrl_site1602] | 6.67 |
| AAATAGAAGAAATATGCACACATACATTGAAATGTT [CACACA_site7996] | 7.47 |
| TTTTCTTCATAAATGCTGCACTGGTTTAAGCATGAT | 7.85 |
| TTTATTAATAAACACACACACACACCCAAAATAAAA [CACACA_site7966] | 7.35 |
| AAAGAAAAAAAAATTACACACATATATTATATATAT [CACACA_site3211] | 7.71 |
| CCTTAATATTTTTGAAGTACATATTTATTTTACAAG [XGTACX_site3049] | 7.37 |
| TCAGATATATAGAATACACACATGGATATAAGAAAT [CACACA_site7831] | 7.08 |
| TTTTTGTAATATTATGATGTCATATATATATATATA [XGTACX_negctrl_site618] | 9.06 |
| ATATTTTGTAACTATACACACATATATATATTATAA [CACACA_site3062] | 7.05 |
| AAATTGGGTACAAATACACACACATATATATATTAA [CACACA_site8745] | 7.24 |
| ATAGATCCTAATGTTGTGCACATGTAAATTAATATA | 9.81 |
| TTTATACAATAAAATGCATGCAAGTATCTATTTTAT [TGCATGCA_site210] | 6.77 |
| TATAATGAACATATGTGTACATATATTTTTTAAATT [XGTACX_site8736] | 6.98 |
| AAAAAACAAAAAAAAAAAAAAATAATACAATATAAT [CACACA_negctrl_site1630] | 6.78 |
| ACCATATAAATAAACACACACACACCGATATATATA [CACACA_site5310] | 7.37 |
| GCACAACATATATTATCACACACATATATATATATA [CACACA_site8619] | 9.71 |
| CAAAAGAATATATGTAGTACATGTTGTAGATAATAT [XGTACX_site1044] | 7.22 |
| CGCGAAGTAGCATTCACACACAGCAAAATATAAATA [CACACA_site7608] | 6.75 |
| ATATATATATATAGTGCACACTTAAGAATATAAAGA [CACACA_site4771] | 10.2 |
| TGTTATATAATTTAGCGTACAGGTTATAGGACGGAT [XGTACX_site8823] | 7.55 |

| Sequence | gcPBM binding intensity (ln) |
| --- | --- |
| AACTATTACTTTCTTTCACACATTTTTTTTTTTTTT [CACACA_site5355] | 6.98 |
| AACTCTTAGAATGACGGTACAGTATAATAGGTGAAC [XGTACX_site7163] | 6.97 |
| ATATAATGAATTATTAGAAAATAAAATGAATAAAGT [CACACA_negctrl_site690] | 7.4 |
| ATCATATAAACATATTGTACTTAAATACATAATATT [XGTACX_site3800] | 7 |
| GGATACGCTTTTGTACCACTCCCCCTTTTGGGAATA [CACACA_negctrl_site1363] | 7.24 |
| TTTATTTATTTATGTGGTACTTCAAAAATATATACT [XGTACX_site355] | 7.06 |
| CAAACCCACGGACACACACACACAAAAATGATTAAA [CACACA_site5365] | 7.14 |
| TAAGAAAAAAGTAAATGTACAGAGAAAATTATCTAT [XGTACX_site7374] | 6.77 |
| ATTTATTACAAATGAATGCACTATATCTTAATTTTG | 8.22 |
| ATATATTTCCTGAGGAGTACTATGAAAGACAAAAAA [XGTACX_site5628] | 7.48 |
| ATAATTTTGATTATCACACATATATATATATATATG [CACACA_site5882] | 7.46 |
| TTTGTCATTTTATTATGTACTCAGCATATAGGGGGG [XGTACX_site505] | 9.51 |
| AAAAAAATTCTGACTTGTACATATAAAATTTACAAA [XGTACX_site4408] | 6.77 |
| GATTTTTAAAATATCACACATAAAAAAAAAAAAAAA [CACACA_site5516] | 6.96 |
| TAATTTAATAATTAGACACACATGTGGAAAATAAAA [CACACA_site5401] | 7.2 |
| ACATATATATAAAGGTGTACACATATATATATATAT [XGTACX_site4779] | 9.18 |
| ATACTAAAGAAACACACACACATATATATATAGAAT [CACACA_site100] | 7.01 |
| TTTACACCCTAAAAATGTACAAGAAAGATTATATTA [XGTACX_site1102] | 7.03 |
| ATTTTTTTCCTAATGGTGCGAATAAATATCCATACC | 9.88 |
| TTAACAGTAAAACACAGTACATATATACTTAAAACA [XGTACX_site1930] | 6.93 |
| AAAGCTTACATATACACACATACATAAATTCATAAA [CACACA_site2469] | 7 |
| AAAAAAAAAAAAGGAACACACAAGTAACAATAAATT [CACACA_site2481] | 6.83 |
| TTTTTTTATTATACTAGTACATATATATACAGCACA [XGTACX_site3464] | 7.4 |

| Sequence | gcPBM binding intensity (ln) |
| --- | --- |
| TAATCTCATAAAACCGCACACACATAAAATTTGCAT [CACACA_site3890] | 7.21 |
| TTTTTAATAATCTCTCAAAATGTTCTTATATTTTAC [CACACA_negctrl_site1691] | 6.67 |
| GAGAAATGGGGACACACACACATATTATAGATATAT [CACACA_site6829] | 7.2 |
| TTGTTTGATATCTTTGTCACGAAAAAAATATATATA [GTGCAC_negctrl_site54] | 7.21 |
| TAAGGATAAAATAAATGTACATATGTAAAATTATTA [XGTACX_site4170] | 6.68 |
| GTCTATAACTATTGCGCACACTTTAAAAAAAAAGAA [CACACA_site1003] | 9.11 |
| TAGAAGCATTGACACACACACATACATACACATACA [CACACA_site6802] | 7.32 |
| TATATATATATATAATGTACATAATAATAATACATC [XGTACX_site5587] | 8.99 |
| CTAGACTTTATTAATTGTACATATGTGTATTTTATA [XGTACX_site480] | 6.74 |
| TTTTCCTTTACATAATGTACACAAAAAAAAAAAAAA [XGTACX_site716] | 7.38 |
| GTTACTGCATACATAACACACATATTCAAAACCCAT [CACACA_site5856] | 7.13 |
| AATACAGACAGACACACACACAAAATAAAATACAAA [CACACA_site245] | 7.31 |
| CATCATAGAGTGGAGTGTACAAATATGTCAACATAT [XGTACX_site2264] | 7.04 |
| TCTTTTTTTTGAATTTGTACATAAGACAATAAAAAA [XGTACX_site4682] | 7.03 |
| ATAAAAAAATCAGACACACACACGTAAACCCATACA [CACACA_site2773] | 7.1 |
| ACATATTTATATATGTGTACATAAATATTCTTTTAA [XGTACX_site8238] | 6.92 |
| ATATTAAGGTTTATATTTTAACTTATTATTTTATTC [CACACA_negctrl_site795] | 6.63 |
| AAAAAAAAAAAACACACACACACACCCATATACATA [CACACA_site2664] | 7.12 |
| GTAAAAAGATAATGAAGTACATTTTTTCATTTTTAT [XGTACX_site5579] | 6.64 |
| ATATATTCAATTCATACACACACAATTTAAGAATGA [CACACA_site9289] | 7 |
| CATATCCTTACGAACTGTACAATATTAAGAATAAAA [XGTACX_site1651] | 7.27 |
| ATTTATTTTTTTATCACACATTTGTGAAATGTGCAT [CACACA_site5869] | 7.01 |
| TTATAGTATTTATAATGTACAAATATATTTTATTTT [XGTACX_site5015] | 6.89 |

| Sequence | gcPBM binding intensity (ln) |
| --- | --- |
| ATATATATATTTATAGTGCATTTATATTAAAATATC [GTGCAC_site9818] | 8.92 |
| TCAAATAGAAAATAAAGTACTTAATTTTTAGGAACA [XGTACX_site1446] | 6.93 |
| TTGAATATTTAAAAACGTACATAAAATTATTTGATT [XGTACX_site5422] | 7.07 |
| ATATTTATATTTTTTTGTACATATATAATTTTATAA [XGTACX_site4151] | 7.09 |
| ATATATATTTATATATGTACATATTAATATATATAT [XGTACX_site1144] | 8.36 |
| AAATTAAAATATATATGTACATATATATATATATAT [XGTACX_site7844] | 9.27 |
| GAGCTTTGGATGAAAGCATGCGATGAATGGATAAAA [TGCATGCA_site786] | 6.94 |
| AACACAAATAAGTATTTGGATTATATTACATTTATA [CACACA_negctrl_site465] | 6.75 |
| TAAATAGGAAAACCTATACACACTTTAAAAAAAATA [CACACA_site1621] | 6.75 |
| TAAATTAAAAAAAAAAACAAAAAAAAAGCAACAAAA [CACACA_negctrl_site1318] | 6.92 |
| ATAAAAATAAATAAATGTACATATATATATATATAT [XGTACX_site1277] | 9.18 |
| ATTTATTTCAATAAACTTCTTTTCTTTAACAATTAC [CACACA_negctrl_site1222] | 6.73 |
| TATAAAAATGTGTATGTACACACTTTATTTTTAATA [CACACA_site2532] | 7.12 |
| TATTTTTCCCTATGCACACACACCGTATATATAATA [CACACA_site4758] | 7.86 |
| AGTATTTCCATATGTACATGCAAAAGGAAAGATATA [TGCATGCA_site850] | 7.26 |
| TGTCCAATTTTTTATCGTACATAATATATAAATAAA [XGTACX_site1705] | 7.51 |
| AAATATAAAAATAGCACACATATATACATATATATA [CACACA_site56] | 7.43 |
| AGAAACGTAAGTTATACACACATGTCAAAAGAAAAA [CACACA_site312] | 6.79 |
| ATCCATCTTTTATATAGTACTTTATAATATATATAT [XGTACX_site8064] | 8.6 |
| CAATGTTAATATAATACACACAATATGTATTTGTCT [CACACA_site1162] | 6.85 |

Source: the supplement of paper PMC11417369
